Drawing on paper PMC6513860, this text covers binding for six molecules.

Chains of the proteins cited; added tags and fusions are not shown.
UniProt Q16665: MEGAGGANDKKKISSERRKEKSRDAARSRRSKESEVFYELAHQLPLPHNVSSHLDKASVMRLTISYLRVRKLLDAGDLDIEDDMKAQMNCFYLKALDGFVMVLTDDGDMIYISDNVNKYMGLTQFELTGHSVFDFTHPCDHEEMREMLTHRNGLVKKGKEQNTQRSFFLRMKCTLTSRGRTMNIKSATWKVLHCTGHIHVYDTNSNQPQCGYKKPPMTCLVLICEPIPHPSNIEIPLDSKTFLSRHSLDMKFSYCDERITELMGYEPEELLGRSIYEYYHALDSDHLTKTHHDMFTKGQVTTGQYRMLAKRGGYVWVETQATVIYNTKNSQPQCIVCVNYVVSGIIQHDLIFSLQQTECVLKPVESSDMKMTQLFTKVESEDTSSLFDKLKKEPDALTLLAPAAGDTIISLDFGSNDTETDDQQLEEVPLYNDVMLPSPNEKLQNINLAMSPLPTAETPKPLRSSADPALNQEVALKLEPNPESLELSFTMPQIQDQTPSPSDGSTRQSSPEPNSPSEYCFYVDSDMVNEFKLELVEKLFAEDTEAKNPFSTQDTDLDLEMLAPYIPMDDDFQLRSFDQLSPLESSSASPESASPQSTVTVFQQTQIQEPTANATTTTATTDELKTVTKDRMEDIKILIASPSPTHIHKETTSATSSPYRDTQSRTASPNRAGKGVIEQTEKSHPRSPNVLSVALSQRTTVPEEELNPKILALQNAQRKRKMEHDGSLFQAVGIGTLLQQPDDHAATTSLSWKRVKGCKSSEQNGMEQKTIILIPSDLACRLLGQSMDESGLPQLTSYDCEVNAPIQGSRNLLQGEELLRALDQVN

These are yes or no findings as the source states them, for the method shown. In cells and extracts the contact can be indirect. Some results given as binding are weak or reduced against the parent protein; the word gives no strength. For some of these results: Tags and fused reporters may be left off the sequences shown.

Experiment [1] has as its target T1, RASSF1A-FLAG (Ras association domain family 1A, wild type) (human) (UniProt Q9NS23).
T1 sequence: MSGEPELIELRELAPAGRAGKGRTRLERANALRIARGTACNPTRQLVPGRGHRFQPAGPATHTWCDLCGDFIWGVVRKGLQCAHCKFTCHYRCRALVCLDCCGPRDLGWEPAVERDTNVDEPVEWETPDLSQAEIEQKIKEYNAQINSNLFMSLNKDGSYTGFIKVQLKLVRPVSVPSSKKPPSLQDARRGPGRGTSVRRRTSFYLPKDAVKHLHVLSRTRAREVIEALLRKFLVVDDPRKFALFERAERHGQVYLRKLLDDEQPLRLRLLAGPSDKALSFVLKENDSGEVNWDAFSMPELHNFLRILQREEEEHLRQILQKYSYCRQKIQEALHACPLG
In words: co-IP; HEK293 cells transfected with RASSF1A-FLAG (WT, S203A, S203D) or RASSF1C-FLAG and HIF1A, hypoxia 24 h; Co-IP lysis buffer; IP with anti-HIF1A or anti-FLAG overnight, Protein G sepharose, washes PBS + 0.1% tween20, western blotting.

Experiment [2] has as its target Hypoxia inducible factor-1 α (HIF-1α), overexpressed (human) (UniProt Q16665). The experiment is described as above.
Experiment [3] addresses endogenous HIF-1α (human (endogenous in PASMCs)) (UniProt Q16665). In words: proximity ligation; human PASMCs on chamber slides, hypoxia for different time points, fixed with acetone:methanol (1:1); Duolink with HIF1A and RASSF1A antibodies.
For experiment [4] the target is unchanged. Nature of the experiment: co-IP; human PASMCs exposed to hypoxia for 24 h; endogenous proteins; HIF1A IP (IgG as control) and RASSF1A western blotting.

Turning to “Hypoxia inducible factor-1 α (HIF-1α), overexpressed (from UniProt Q16665 1-826)”, in experiment [1], the binding entry was “binds”.

B1: RASSF1C-FLAG (protein, UniProt Q9NS23-4 1-270)
chain: MGEAEAPSFEMTWSSTTSSGYCSQEDSDSELEQYFTARTSLARRPRRDQDEPVEWETPDLSQAEIEQKIKEYNAQINSNLFMSLNKDGSYTGFIKVQLKLVRPVSVPSSKKPPSLQDARRGPGRGTSVRRRTSFYLPKDAVKHLHVLSRTRAREVIEALLRKFLVVDDPRKFALFERAERHGQVYLRKLLDDEQPLRLRLLAGPSDKALSFVLKENDSGEVNWDAFSMPELHNFLRILQREEEEHLRQILQKYSYCRQKIQEALHACPLG
B1: the binding entry in experiment [2] is reported as “no binding”.

B2: RASSF1A-FLAG (Ras association domain family 1A, wild type) (protein, UniProt Q9NS23-2 1-340)
chain: MSGEPELIELRELAPAGRAGKGRTRLERANALRIARGTACNPTRQLVPGRGHRFQPAGPATHTWCDLCGDFIWGVVRKGLQCAHCKFTCHYRCRALVCLDCCGPRDLGWEPAVERDTNVDEPVEWETPDLSQAEIEQKIKEYNAQINSNLFMSLNKDGSYTGFIKVQLKLVRPVSVPSSKKPPSLQDARRGPGRGTSVRRRTSFYLPKDAVKHLHVLSRTRAREVIEALLRKFLVVDDPRKFALFERAERHGQVYLRKLLDDEQPLRLRLLAGPSDKALSFVLKENDSGEVNWDAFSMPELHNFLRILQREEEEHLRQILQKYSYCRQKIQEALHACPLG
As to B2, the binding entry in experiment [2] is listed as “binds”.

B3: RASSF1A-FLAG (S203A) (protein, UniProt Q9NS23-2 1-340)
chain: MSGEPELIELRELAPAGRAGKGRTRLERANALRIARGTACNPTRQLVPGRGHRFQPAGPATHTWCDLCGDFIWGVVRKGLQCAHCKFTCHYRCRALVCLDCCGPRDLGWEPAVERDTNVDEPVEWETPDLSQAEIEQKIKEYNAQINSNLFMSLNKDGSYTGFIKVQLKLVRPVSVPSSKKPPSLQDARRGPGRGTSVRRRTAFYLPKDAVKHLHVLSRTRAREVIEALLRKFLVVDDPRKFALFERAERHGQVYLRKLLDDEQPLRLRLLAGPSDKALSFVLKENDSGEVNWDAFSMPELHNFLRILQREEEEHLRQILQKYSYCRQKIQEALHACPLG
For B3, the binding entry in experiment [2] was “binds”.

B4: RASSF1A-FLAG (S203D) (protein, UniProt Q9NS23-2 1-340)
chain: MSGEPELIELRELAPAGRAGKGRTRLERANALRIARGTACNPTRQLVPGRGHRFQPAGPATHTWCDLCGDFIWGVVRKGLQCAHCKFTCHYRCRALVCLDCCGPRDLGWEPAVERDTNVDEPVEWETPDLSQAEIEQKIKEYNAQINSNLFMSLNKDGSYTGFIKVQLKLVRPVSVPSSKKPPSLQDARRGPGRGTSVRRRTDFYLPKDAVKHLHVLSRTRAREVIEALLRKFLVVDDPRKFALFERAERHGQVYLRKLLDDEQPLRLRLLAGPSDKALSFVLKENDSGEVNWDAFSMPELHNFLRILQREEEEHLRQILQKYSYCRQKIQEALHACPLG
For B4, the binding result in experiment [2] was “binds”.

B5: endogenous RASSF1A (protein, UniProt Q9NS23-2 1-340)
chain: MSGEPELIELRELAPAGRAGKGRTRLERANALRIARGTACNPTRQLVPGRGHRFQPAGPATHTWCDLCGDFIWGVVRKGLQCAHCKFTCHYRCRALVCLDCCGPRDLGWEPAVERDTNVDEPVEWETPDLSQAEIEQKIKEYNAQINSNLFMSLNKDGSYTGFIKVQLKLVRPVSVPSSKKPPSLQDARRGPGRGTSVRRRTSFYLPKDAVKHLHVLSRTRAREVIEALLRKFLVVDDPRKFALFERAERHGQVYLRKLLDDEQPLRLRLLAGPSDKALSFVLKENDSGEVNWDAFSMPELHNFLRILQREEEEHLRQILQKYSYCRQKIQEALHACPLG
On to B5, for which the binding result in experiment [3] and in experiment [4] was “binds” in each case.
